Measurements taken from the supplement of paper PMC12217912.
The other results are listed elsewhere or left out. The full chains were built here from the parent and the listed change. Values near 0.05 are background.

B1: TEV protease; numbered along this chain (parent)
chain: MGESLFKGPRDYNPISSSICHLTNESDGHTTSLYGIGFGPFIITNKHLFRRNNGTLVVQSLHGVFKVKDTTTLQQHLVDGRDMIIIRMPKDFPPFPQKLKFREPQREERICLVTTNFQTKSMSSMVSDTSCTFPSGDGIFWKHWIQTKDGQCGSPLVSTRDGFIVGIHSASNFTNTNNYFTSVPKNFMELLTNQEAQQWVSGWRLNADSVLWGGHKVFMVKPEEPFQPVKEATQL

Variants of: B1
Experiment: raw area under fraction-flipped curve 0-4 h after induction (AUC4h, not background-subtracted), DNA-recorder readout of cleavage of the substrate (dimensionless); higher = more cleavage of the substrate by the protease variant
Conditions: temperature: 34 °C; time window: 0-4 h after rhamnose induction
Experimental: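 In vivo DNA recorder in E. coli TOP10(DE3) ΔrhaA at 34 °C. Each TEVp single-site mutant (parent TEVp 0) is paired with a single-site variant of the 7-mer TEVs (canonical ENLYFQ|S). The substrate sits between flexible linkers in a Bxb1-sfGFP-TEVs-SsrA fusion, so cleavage stabilises Bxb1 and speeds flipping of a recombination array, read by NGS. The value is the raw area under the fraction-flipped curve over 0-4 h after rhamnose induction (AUC4h), with ≥20 reads per time point. It is not background-subtracted; inactive controls average about 0.047.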
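Note: Bxb1 expression induced with 0.2% (w/v) L-rhamnose at OD600 near 0.5, cultures sampled hourly, flipped fraction per protease–substrate barcode pair counted by paired-end Illumina sequencing.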

Variant | area with substrate EALYFQS | area with substrate ECLYFQS | area with substrate EDLYFQS | area with substrate EELYFQS | area with substrate ELLYFQS | area with substrate EMLYFQS | area with substrate EPLYFQS | area with substrate ERLYFQS | area with substrate ESLYFQS | area with substrate ETLYFQS | area with substrate EWLYFQS | area with substrate EGLYFQS | area with substrate EILYFQS | area with substrate EKLYFQS | area with substrate EVLYFQS | area with substrate EYLYFQS | area with substrate EHLYFQS | area with substrate EQLYFQS | area with substrate EFLYFQS
MGESLFKGPRDYNPISSSICHLTNESDGHTTSLYGIGFGPFIITNKHLFRRNVGTLVVQSLHGVFKVKDTTTLQQHLVDGRDMIIIRMPKDFPPFPQKLKFREPQREERICLVTTNFQTKSMSSMVSDTSCTFPSGDGIFWKHWIQTKDGQCGSPLVSTRDGFIVGIHSASNFTNTNNYFTSVPKNFMELLTNQEAQQWVSGWRLNADSVLWGGHKVFMVKPEEPFQPVKEATQL [N53V] | 0.0827 | 0.0803 | 0.0875 | 0.0853 | 0.0839 | 0.0776 | 0.104 | 0.0838 | 0.0824 | 0.0831 | 0.0502 | – | – | – | – | – | – | – | –
MGESLFKGPRDYNPISSSICHLTNESDGHTTSLYGIGFGPFIITNKHLFRRNMGTLVVQSLHGVFKVKDTTTLQQHLVDGRDMIIIRMPKDFPPFPQKLKFREPQREERICLVTTNFQTKSMSSMVSDTSCTFPSGDGIFWKHWIQTKDGQCGSPLVSTRDGFIVGIHSASNFTNTNNYFTSVPKNFMELLTNQEAQQWVSGWRLNADSVLWGGHKVFMVKPEEPFQPVKEATQL [N53M] | 0.108 | 0.106 | 0.0809 | 0.048 | – | 0.0893 | 0.103 | 0.0881 | 0.0834 | – | – | 0.0944 | 0.0644 | 0.0661 | 0.0802 | 0.0907 | – | – | –
MGESLFKGPRDYNPISSSICHLTNESDGHTTSLYGIGFGPFIITNKHLFRRNSGTLVVQSLHGVFKVKDTTTLQQHLVDGRDMIIIRMPKDFPPFPQKLKFREPQREERICLVTTNFQTKSMSSMVSDTSCTFPSGDGIFWKHWIQTKDGQCGSPLVSTRDGFIVGIHSASNFTNTNNYFTSVPKNFMELLTNQEAQQWVSGWRLNADSVLWGGHKVFMVKPEEPFQPVKEATQL [N53S] | 0.106 | 0.0854 | 0.173 | 0.139 | 0.0779 | 0.0957 | 0.113 | 0.12 | 0.107 | – | – | 0.0956 | 0.0948 | 0.098 | 0.11 | – | 0.128 | 0.121 | –
MGESLFKGPRDYNPISSSICHLTNESDGHTTSLYGIGFGPFIITNKHLFRRNCGTLVVQSLHGVFKVKDTTTLQQHLVDGRDMIIIRMPKDFPPFPQKLKFREPQREERICLVTTNFQTKSMSSMVSDTSCTFPSGDGIFWKHWIQTKDGQCGSPLVSTRDGFIVGIHSASNFTNTNNYFTSVPKNFMELLTNQEAQQWVSGWRLNADSVLWGGHKVFMVKPEEPFQPVKEATQL [N53C] | 0.0989 | 0.115 | 0.104 | 0.105 | 0.0859 | – | 0.0432 | 0.087 | 0.101 | – | 0.123 | 0.0791 | 0.074 | – | – | 0.0907 | 0.0978 | 0.0932 | –
MGESLFKGPRDYNPISSSICHLTNESDGHTTSLYGIGFGPFIITNKHLFRRNNVTLVVQSLHGVFKVKDTTTLQQHLVDGRDMIIIRMPKDFPPFPQKLKFREPQREERICLVTTNFQTKSMSSMVSDTSCTFPSGDGIFWKHWIQTKDGQCGSPLVSTRDGFIVGIHSASNFTNTNNYFTSVPKNFMELLTNQEAQQWVSGWRLNADSVLWGGHKVFMVKPEEPFQPVKEATQL [G54V] | 0.0742 | 0.0666 | 0.0656 | 0.132 | 0.063 | 0.102 | 0.062 | – | 0.0836 | 0.0661 | 0.0499 | 0.0676 | 0.0639 | 0.053 | 0.0627 | 0.0739 | – | 0.0705 | –
MGESLFKGPRDYNPISSSICHLTNESDGHTTSLYGIGFGPFIITNKHLFRRNNQTLVVQSLHGVFKVKDTTTLQQHLVDGRDMIIIRMPKDFPPFPQKLKFREPQREERICLVTTNFQTKSMSSMVSDTSCTFPSGDGIFWKHWIQTKDGQCGSPLVSTRDGFIVGIHSASNFTNTNNYFTSVPKNFMELLTNQEAQQWVSGWRLNADSVLWGGHKVFMVKPEEPFQPVKEATQL [G54Q] | 0.0783 | 0.0717 | 0.057 | 0.1 | 0.0847 | 0.0751 | 0.0709 | 0.0686 | 0.0603 | 0.0653 | 0.0665 | 0.102 | – | 0.0697 | 0.0545 | 0.0712 | 0.0748 | 0.074 | 0.0668
MGESLFKGPRDYNPISSSICHLTNESDGHTTSLYGIGFGPFIITNKHLFRRPNGTLVVQSLHGVFKVKDTTTLQQHLVDGRDMIIIRMPKDFPPFPQKLKFREPQREERICLVTTNFQTKSMSSMVSDTSCTFPSGDGIFWKHWIQTKDGQCGSPLVSTRDGFIVGIHSASNFTNTNNYFTSVPKNFMELLTNQEAQQWVSGWRLNADSVLWGGHKVFMVKPEEPFQPVKEATQL [N52P] | 0.0582 | 0.0651 | 0.105 | 0.0755 | – | – | 0.0669 | 0.0946 | 0.0847 | – | – | 0.044 | 0.0618 | 0.0723 | 0.0595 | 0.0643 | – | 0.076 | –
MGESLFKGPRDYNPISSSICHLTNESDGHTTSLYGIGFGPFIITNKHLFRRCNGTLVVQSLHGVFKVKDTTTLQQHLVDGRDMIIIRMPKDFPPFPQKLKFREPQREERICLVTTNFQTKSMSSMVSDTSCTFPSGDGIFWKHWIQTKDGQCGSPLVSTRDGFIVGIHSASNFTNTNNYFTSVPKNFMELLTNQEAQQWVSGWRLNADSVLWGGHKVFMVKPEEPFQPVKEATQL [N52C] | 0.0953 | 0.0674 | 0.0659 | 0.0613 | – | 0.0757 | 0.0763 | 0.0767 | 0.0757 | 0.0667 | – | – | 0.0666 | 0.0835 | 0.0801 | 0.067 | 0.0344 | 0.0811 | –
MGESLFKGPRDYNPISSSICHLTNESDGHTTSLYGIGFGPFIITNKHLFRRVNGTLVVQSLHGVFKVKDTTTLQQHLVDGRDMIIIRMPKDFPPFPQKLKFREPQREERICLVTTNFQTKSMSSMVSDTSCTFPSGDGIFWKHWIQTKDGQCGSPLVSTRDGFIVGIHSASNFTNTNNYFTSVPKNFMELLTNQEAQQWVSGWRLNADSVLWGGHKVFMVKPEEPFQPVKEATQL [N52V] | 0.0685 | 0.0773 | 0.0817 | 0.0773 | – | – | – | 0.0716 | 0.0668 | 0.0661 | – | 0.0547 | 0.0781 | 0.0692 | 0.0581 | 0.0822 | 0.0728 | 0.0698 | –
